Source: the supplement of paper PMC10681739
In all, about 2,700 sequences were measured (“arbitrary fluorescence units”: median about 4,100, highest 2% from about 54,000 on). This is one part of the list.

Each sequence was assayed against T1, ETS1 (UniProt P14921) (assay: ETS1 binding intensity (PBM fluorescence) (arbitrary fluorescence units); higher = stronger binding). Details: ETS1 concentration 10 nM.
T1 sequence: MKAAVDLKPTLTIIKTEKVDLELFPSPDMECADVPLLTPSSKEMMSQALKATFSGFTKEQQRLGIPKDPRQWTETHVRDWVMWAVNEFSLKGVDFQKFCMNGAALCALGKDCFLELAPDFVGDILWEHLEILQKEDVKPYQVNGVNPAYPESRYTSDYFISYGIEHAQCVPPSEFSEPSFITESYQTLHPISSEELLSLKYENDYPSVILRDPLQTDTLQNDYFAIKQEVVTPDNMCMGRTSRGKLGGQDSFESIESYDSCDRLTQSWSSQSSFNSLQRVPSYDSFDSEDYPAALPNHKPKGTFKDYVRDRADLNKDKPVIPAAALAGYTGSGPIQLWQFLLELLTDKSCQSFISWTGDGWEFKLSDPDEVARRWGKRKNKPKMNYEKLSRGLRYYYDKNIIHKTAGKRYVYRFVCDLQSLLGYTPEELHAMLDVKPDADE
Protocol: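 gcPBM on wild-type 36-bp genomic probes with two neighbouring ETS1 sites (4-24 bp apart). Recombinant human ETS1 (10 nM) was detected with anti-ETS1 antibody fluorescence. Values are medians over 3 replicate spots. The probes sit in constant array flanks that are not printed.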

Sequence	ETS1 binding intensity
CGGACGCAGACACGGAAGCGGAAGTGCTGCCGAGCT	4820
AGCCTCGAGACCCGGAAAAGGAAGCCCGAAGGACTC	437
ATCTCGCGCTGCCGGAAGCGGAACTACCCGGGTCCT	4680
AGAGGCAGAAGGAAACAGCCAGCTTCCTGAAGGGAA	660
GGGCCTCCGGAAAAACGCCCCGACTTCCTGCCCCGC	5160
GTGTCGGAAATAACCCAGCACGCGGCACTTCCTGTC	4740
CACAGAGCACAGGAAGTGAAGAGGAAACAGTGACCT	9590
GCCACCGCCCCTTCCGGGTCCGGAACGGCTCCAGCT	7050
CAAAGTTCCTGTCTAGTTATTTTTTTACATCCTTTG	9860
ATAGAGCTCTGGAGGAAGCAGGAAGCGTGAGCAAGG	589
AAGGAGAGGAAACCTGACCACGACAGGAAGTGACTT	2770
TGGCCCTGTAACTTCCTGATTTCCTGTGTACCTGTC	12000
TCCTCTTTCCGTTGTGAGCACCCTGCATCCTGGTGG	3800
GAGGGAGTAACACAGGAAGGAAGTGACTAGCACCAG	1590
CGCGCCCGCTGCCCGGAAGGAAGCCGTGGGCTGGCC	419
TGGCTGCTGTCTTCCGTGGTCGGATGTCCATGAAGG	266
GGCTCACTTCCGGCCTCAGAGCCGCTTCCGGCGCGC	71400
CAATTGAGGAAACAGGACCAAAGACAGGAAATGGCT	2860
CGCCAGCCAACTTCCTCATCAGGAAGTCTTAGGGAG	4520
GGACAGGATTTTGAGCTCTGGTTACAGCATCCTGCA	216
CGGTTGCGGCGCTTCCTGGGCGGATGGCTTGAAATT	2790

Sequence	ETS1 binding intensity
TGGGAGGAAATGCCACAGCTGGTTGTGTTTCCGATT	587
CCTTCAGGAAGCAGGACTCTGATGGCTTCCTCAAAC	626
GGTGCTCACGGATGCTACGCTTGTTCCTGTCTCCTC	370
AGACAGCGGAAGTGGCTAATAATATTTCCTCCCCTC	20100
TCCACTCTGCGGAAGCCACGTTCATCCTGCCCTGCC	586
CAACTTCCTTCTGGAGTGAACATTTAACATCCTGCC	14000
CTTCATTTCCTCCTTTCTCCTTAACAAGGAAATGAC	14800
ACGTGACTGCTGCGGAAGGCGGAAGCCGGGAGACTC	469
ACATCACCCTTCCGGGGCTCAGGCGGAAGAGGCTGC	3970
CCCGCATCCGGCGCCAGCAGCCGGGGTTTCCGAGCC	39200
CCGACCAGCTTCCGGGGCGGGACTTCCGGTCGTGGG	36700
TTGTTTCAGGAAGTGCTTTCTGTAAGGATGTTAGGG	2270
TAAGTTTCCTGAGGCCTCCCAGCCATGCTTCCTGTA	5090
TCATGGTGGGCAGGAAGACATTTCCGTTACCCTGGG	3150
AGGTGCTTCCTGTAGATGTGTATCTGAGGAAATGGA	19800
AAGGGAGTGTTTCCTGTGGGCCGGATGAAGATCTCA	14400
GTCTCAGCATCCTGGCCATGTGATTTCCTGCCACGC	6580
AGCTACTTCTTCCTGGCAGAGACCGGAAGTGCGGTC	13800
CTTTACAGGAAGTGGCTGATATGGCTTCCTGCTGCA	12000
GTGGGAGGAAGATGAACCACATGCCACTTCCTCTCT	915
AACGTCCAGGAGGAAGTCAATTTCCTGGCCCTCAAT	5100

Sequence	ETS1 binding intensity
ACTCCCCGCGGAAGTGCTCACACCGGAACCCCTCTG	1490
CTCACCTACTTATCCGTTGTAGGAAATTGCATTCCC	419
GTTCGTTGCTCCCGGAACCGGAAGTCCGCTGCCTGC	8960
CACCGGAAGCCAGCTGGGTGTGGGGAGAGGATGTGA	10100
GAATTGAACAGGAAACATTCACGGGAAATCTGCAGG	2610
GCGCCGTTTTGTTCCGCTCCGCGGAAGGCGTGTCCC	334
AGTTAGGATGTCTGTGTCATCTGCCATTTCCTCTTT	532
AGTTCACTGCAGCTTCCTCCTTCCTGGGCTCAACCA	1730
TTTAGCAAGGAAGCAAATGCCCACATCCTGTCATTA	3070
TCTTGAAGGAAGTGGCCTTGTGTCACTTCCGGCCTC	12600
TGAAGTGCAGGAAGAGCCAGCTGCGGAAACGGAGGC	392
TGTTGCCGGATCTGCCCCCACTCCCTTCCTGTTGTG	746
AAGGGAATCTGGGAAATGTAGTTTCCTGCAATCCAG	540
CAGGCACCTGTATTTCCGTTTCCGGTTCGCCTCCGG	22100
TCGGGTTCCGGGGCGGGCTGGGCCGGCGGAAGGGGT	1410
CACATGCATTTCCTTTTGGGGAGTTTCCTTCTGGGC	8200
GCCGCTCTCCCTCGGAAGCCGGAAGTCGGCTTCTAG	9610
GCGCGAGGCCGGGAAACCAGGTTCCGGCCCCACCAA	760
AAAAGAGTGTGTTTCCTGGCTTCCTGAGAACTGGGG	3570
GGTGCGGAAGTCGCTCCAGGGGTCACTGGGAAGTGT	5620
